Consider 54 compounds from ChEMBL document CHEMBL4888484, “Replenishing the malaria drug discovery pipeline: Screening and hit evaluation of the MMV Hit Generation Library 1 (HGL1) against asexual blood stage Plasmodium falciparum ,using a nano luciferase reporter read-out” (2022).

SMILES strings stand for the structures. About 540 (0.36%) of roughly 150,000 compounds showed an effect of 50% or more. The list shows a part of the results.

This test concerns Plasmodium falciparum. As to the kind of experiment: Primary screen in NF54 nanoGlo assay, in single point, at 2uM, 72h; a lower Z score goes with more inhibition. The class given is functional, Erythrocyte. As to conditions: timepoint 72 hour.
For the compound `Cc1ccc(CC(=O)N[C@H](CO)CC(C)C)cc1O`, the “% Inhibition” value is given as -12% and the Z score came out at 1.67.
As to `COc1ccccc1C(=O)Nc1c(C(=O)N2CCCCCC2)oc2ccccc12`, the “% Inhibition” value was -7% and the Z score worked out at 0.68.
Take `Cc1ncc([C@H](C)NCc2cc3c(cc2OC(F)F)OCO3)s1`: the “% Inhibition” value was -6% and the Z score was found to be 0.8.
In the case of `Cc1ccc(-c2cc3c(N4CCN(Cc5ccccc5)CC4)nccn3n2)cc1C`, the “% Inhibition” value is recorded as -10% and the Z score stood at 1.71.
`CCOCCCNC(=O)CCC(=O)N1C[C@@H]2CCCN2c2ccccc21`: the “% Inhibition” value amounted to 5% and the Z score is reported as -0.91.
For `Cc1nc(O)cc(C2CCN(Cc3[nH]nc(C)c3Cl)CC2)n1`, the “% Inhibition” value was 3% and the Z score is listed as -0.46.
With `CC(C)C(NC(=O)C(O)c1cnn(C)c1)c1ccc(Cl)cc1F` (stereo not drawn), the “% Inhibition” value was -8% and the Z score is listed as 0.83.
For `C[C@H]1c2ccccc2CCN1C(=O)NCc1ncccc1S(C)(=O)=O`, the “% Inhibition” value is reported as -1% and the Z score is 0.27.
The like results for `Cc1ccc(N2CCN(c3nccn4c(=O)n(CC(=O)NCCCc5ccccc5)nc34)CC2)cc1` were, in that order, -18% and 1.77.
The like results for `COc1cccc(OC)c1-c1cncc(C(=O)NCC2CC2)c1` were, in that order, -9% and 1.48.
The matching figures for `c1cnc(N2CCN(Cc3noc([C@@H]4CCCO4)n3)CC2)nc1`: -6% and 1.22.
For `CC(OCC1CC1)C(=O)NCC(C)S(N)(=O)=O` (stereo not drawn), the “% Inhibition” value is recorded as -15% and the Z score amounted to 1.54.
The like results for `COc1ccc(S(=O)(=O)N2CCN(S(=O)(=O)c3ccc(OC)cc3)C2)cc1` were, in that order, 33% and -4.2.
The matching figures for `CCn1cc(C(=O)N2CCNC(=O)[C@@H]2Cc2ccccc2)c(C)n1`: -10% and 1.
The like results for `O=C(Cc1csc(-c2cccnc2)n1)NCc1cccnc1` were, in that order, 11% and -1.54.
Regarding `O=C(Nc1ccc2c(c1)OCO2)C1CCN(C(=O)c2oc3ccccc3c2COc2ccccc2)CC1`, the “% Inhibition” value is given as -3% and the Z score amounted to 0.39.
Consider `Cc1ccn(CCn2ccc(-c3cccc(-c4cnccc4C)c3)n2)n1`, for which the “% Inhibition” value is given as -7% and the Z score stood at 0.61.
The like results for `CCCCN(C1CCCCCC1)S(=O)(=O)N1CCC[C@@H]1COC` were, in that order, 3% and -0.54.
Take `Cc1c(Cl)cncc1NC(=O)N1CCN2C(=O)OCC[C@H]2C1`: the “% Inhibition” value is given as -3% and the Z score amounted to 0.61.
The matching figures for `CC(=O)Nc1ccc(NC(=O)c2cn3c(n2)COCC3)cc1`: -10% and 1.56.
For `O=C(CCc1c[nH]c2ccccc12)N1CCN(S(=O)(=O)c2ccc3c(c2)CCCC3)CC1`, the “% Inhibition” value is 2% and the Z score was -0.23.
With `COc1cc(NS(=O)(=O)NCc2ccccc2)cc(OC)c1`, the “% Inhibition” value was 7% and the Z score is reported as -0.94.
Consider `COc1ncc(NC(=O)N[C@H]2C[C@@H](CO)C2)c(C)c1Br`, for which the “% Inhibition” value is recorded as -16% and the Z score was 3.11.
For the compound `CCCc1nc(C)c(CN[C@H](c2ccccc2)C2(CO)CCC2)o1`, the “% Inhibition” value is recorded as -5% and the Z score was 0.97.
The like results for `CCn1nccc1C(=O)N1CCC[C@H]1c1cc(C(C)C)no1` were, in that order, -12% and 1.6.
Consider `C1CC2OC1CC2Nc1nc(C2CC2)no1` (stereo not drawn), for which the “% Inhibition” value was 0% and the Z score is on record as -0.02.
In the case of `COc1ccc2[nH]c(C(=O)Nc3cc(NC(=O)C4CCCC4)ccc3C)c(C)c2c1`, the “% Inhibition” value was -7% and the Z score is reported as 1.26.
Consider `COc1ccc(NS(=O)(=O)c2c(C)noc2C)cn1`, for which the “% Inhibition” value was 3% and the Z score is given as -0.47.
Turning to `CC1CN(CCNC(C)c2ccc(S(C)(=O)=O)c(F)c2)CCO1` (stereo not drawn), the “% Inhibition” value was -2% and the Z score came to 0.21.
As for `CN(C)c1ncc(CN2CCC(Cc3ccccc3)CC2)s1`, the “% Inhibition” value is reported as -4% and the Z score stood at 0.5.
Consider `CCCOc1ccc(C2c3c(-c4ccc(C)cc4)nn(C4CCS(=O)(=O)C4)c3C(=O)N2Cc2ccccc2)cc1` (stereo not drawn), for which the “% Inhibition” value amounted to 1% and the Z score is given as -0.07.
As for `CN(C[C@H]1CCCCO1)C(=O)c1scc2c1CCCC2`, the “% Inhibition” value is listed as -16% and the Z score was found to be 1.72.
As to `Clc1ccccc1[C@H]1C[C@@H](c2ccccc2)Nc2nnnn21`, the “% Inhibition” value is on record as -11% and the Z score turned out to be 1.42.
`COc1ccccc1N1CCN(C(=O)C2CC3CCC2C3)CC1` (stereo not drawn): the “% Inhibition” value is 2% and the Z score was -0.24.
The matching figures for `CCO[C@H]1COC[C@@H]1NC(=O)N1CCC(COc2ccc(OC)cc2)CC1`: -2% and 0.33.
The like results for `CN(C)C(=O)NC1CCC(C(F)F)CC1` (stereo not drawn) were, in that order, -11% and 1.43.
With `CCOc1ccc(NC(=O)CCCc2nc(-c3cc4ccc(C)cc4nc3O)no2)cc1`, the “% Inhibition” value is recorded as -11% and the Z score is on record as 2.08.
With `Cc1nn(C)c(C)c1CC(=O)N[C@@H](C)c1ccc(Cl)cn1`, the “% Inhibition” value was -8% and the Z score worked out at 1.32.
Turning to `Cc1ccc(-c2ccc3nn(CC(=O)Nc4ccc(Br)cc4)c(=O)n3n2)cc1C`, the “% Inhibition” value was -10% and the Z score is reported as 0.95.
The matching figures for `Cc1oc(CNC(=O)c2ccc(F)cc2F)nc1C(=O)N1CCC(C)CC1`: -5% and 0.65.
The matching figures for `Cc1cc(Oc2ccc(NC(=O)c3oc(C)nc3C)cc2)n[nH]1`: 29% and -3.9.
As to `Cc1[nH]nc(-c2ccsc2)c1NC(=O)Cc1ccccc1`, the “% Inhibition” value was -2% and the Z score came to 0.42.
The matching figures for `CC(NC(=O)C1CC1c1ccccc1)C1CC2CCC1C2` (stereo not drawn): -10% and 1.17.
The like results for `N#Cc1ccc(CNC(=O)N2CCCCCCC2)cc1` were, in that order, 6% and -0.8.
Regarding `O=C(CN1C(=O)CCC1=O)N1CCN(Cc2ccoc2)CC1`, the “% Inhibition” value is reported as 9% and the Z score is reported as -0.73.
The like results for `CC(C)Nc1cc(NCc2csc(N)n2)ncn1` were, in that order, -10% and 1.98.
With `Cc1c(Cl)cccc1S(=O)(=O)N1CC[C@H](N2CCc3ccccc3C2)C1`, the “% Inhibition” value is -10% and the Z score is on record as 1.89.
As for `C[C@@H](Cn1ccnc1)NC(=O)c1ccc2c(c1)OCO2`, the “% Inhibition” value is -9% and the Z score came to 1.51.
With `c1cncc(CNCC2CC23CCc2ccccc23)c1` (stereo not drawn), the “% Inhibition” value was -7% and the Z score came out at 0.95.
Take `Cn1cc(C(=O)N2CC(F)(F)C[C@H]2COc2ccc3c(c2)CCC3)cn1`: the “% Inhibition” value is -13% and the Z score came to 2.28.
Turning to `Cc1ncc(C(=O)N(CCOc2ccccc2)C[C@H]2CCCO2)c(C)n1`, the “% Inhibition” value is -8% and the Z score was 1.55.
The matching figures for `CCc1c(C)sc(NC(=O)c2noc3c2C[C@@H](C(C)(C)C)CC3)c1C#N`: -7% and 1.36.
In the case of `COc1ccc(N2Cc3nn(CC(=O)N(C)c4ccccc4)c(=O)n3C2=O)cc1`, the “% Inhibition” value is -10% and the Z score was 1.26.
The matching figures for `O=C(C1CCCCC1)N1CC(N(Cc2ccccn2)C(=O)Nc2ccccc2)C1`: -1% and 0.13.
